Reference: the supplement of paper PMC11417369
The other results are listed elsewhere or left out.

tested on: PfSIP2 AP2 domain 1 (GST-tagged); test: gcPBM binding intensity (ln(normalized median fluorescence intensity)); higher = stronger DNA binding
Summary of the method: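 Binding intensity values are the highest Masliner-normalised natural-log median intensity among replicate spots of either probe orientation. The binding step lasted 1 h in 1× PBS with 1% milk, 0.2 mg/ml BSA, 0.5% salmon testes DNA and 0.03% Triton X-100, using GST-tagged P. falciparum DNA-binding domains expressed in E. coli on an Agilent 4 × 180k array of primer-extended double-stranded 36-bp intergenic genomic probes plus negative controls. Alexa488 anti-GST antibody and a 488 nm scan detected bound protein.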

Row | Sequence | gcPBM binding intensity (ln)
1 | TAAATATATTTCATGACATGCAACTTGTTTTTTTGT [TGCATGCA_site456] | 6.72
2 | TCAACACACGTGGAATGTACTTTAGTATAAGAATTC [XGTACX_site7842] | 6.82
3 | TATATATATATATAAACACACATAAATATAAATATA [CACACA_site1121] | 8.9
4 | ATATATATATTTTATGCATGTTCATTTTCTATATTT [TGCATGCA_site442] | 8.1
5 | ATAATATATACGTGTGTGCACATGACAAAAGCATAT | 9.07
6 | GTTAATGTGGTTACTTGTACATATTAACGTCTTTTT [XGTACX_site2617] | 6.98
7 | AAAAAAAAAATATACACACACATATATATATATATA [CACACA_site3404] | 9.51
8 | CCCACAGACAAAAACACACACAAAGGTGTTCTTATA [CACACA_site4840] | 7
9 | AAGAGAAAAAGAATGAAAGAAAAAAAAAAAAAATAT [CACACA_negctrl_site1527] | 6.98
10 | TTTTTAAAGGTGATAAAACACACGATTTAGAAATGT [CACACA_site3160] | 7.1
11 | TTATCGACCAATAAAGCATGCAAAAAAAAAAAAAAA [TGCATGCA_site788] | 6.96
12 | CTACATAAAAAAATATGTACATATATATATATATAT [XGTACX_site667] | 9.13
13 | TTTAATATAACTATTTGTACATAAAGAATATAAATA [XGTACX_site4594] | 7.01
14 | TAAATTTTTATTTGTAGTACTATATATATATATATA [XGTACX_site1026] | 8.96
15 | TTTTTTTGCCATATTACACACACACGGGTAAACCCC [CACACA_site6874] | 7.23
16 | TAATGAAAATATATAACACACAAAAGTTATAAATAT [CACACA_site1189] | 6.83
17 | GTGTTGAATTATGTGCTTTTTTCTTTCTACTCAGTA [XGTACX_negctrl_site464] | 7.49
18 | ATACATCGTATATAAGTGCATATTAAGGTCTTAAGA [GTGCAC_site9560] | 8.11
19 | GAACATTTGAAATATGCACACATGTATAAACATACA [CACACA_site5463] | 7.39
20 | TATATATGTATCAAGTGTACAGTTTTAAAAAAAAAA [XGTACX_site6011] | 7.08
21 | ACACACAATACAAAAGTGCATATAATAATTAATCAT | 8.76
22 | TATTTCATTAATGTCACTTTGAAAGAAATGAAAAAA [CACACA_negctrl_site1803] | 6.95
23 | AAAAAAAAAAGACACACACACAAAATAAACAAACAA [CACACA_site7308] | 6.88

Row | Sequence | gcPBM binding intensity (ln)
24 | TGTTTTTAAAAAAAAAAAAAATCACACCGGCAGGTA [CACACA_negctrl_site1437] | 6.65
25 | TGCGTATATATATACACACACATATATATATTTTAA [CACACA_site1952] | 7
26 | TATTGACATATATTAGTGCAATAATGAAATCAAGTA | 7.96
27 | CATATTATTCTTTTCACACACGCGTTAATAATAATC [CACACA_site3931] | 7.15
28 | AAAAAAAAAAAAAACACACACATACAGACAAAAATG [CACACA_site83] | 7.26
29 | CTAAATTATAGATCAGTGCAATTTAATATGAGTCCA | 7.57
30 | TTGTAATTATTAAACACACACAAAATATATATAATA [CACACA_site2523] | 7.16
31 | CCATAAAAATATAATACACACATATATATTAACATA [CACACA_site4102] | 7
32 | AGGTGAGCTCAGACTACACACACAAAGAAAAAAATA [CACACA_site8439] | 6.8
33 | TAAACATAATATTTAACACACATGAAGATGTATATT [CACACA_site1036] | 6.64
34 | ATAAATATTTACAAAAGTACACATAACTTTAGATAT [XGTACX_site1685] | 6.88
35 | GTTTTGGCTAACTATTCACACATTAAAATATTACCA [CACACA_site5016] | 7.1
36 | CACCATGATACATACACACAGACATATACGCATTCA [CACACA_site1008] | 7.11
37 | ACAATCCACAGGGGCGCACACATATAAGCAGTATAT [CACACA_site3817] | 7.79
38 | AAAAAATTAATAAAAACACACAAAAAAAATAAACAA [CACACA_site1907] | 6.89
39 | TTTGTTGTTTGGAGATGTACATATTTTACACTTTTT [XGTACX_site5965] | 6.89
40 | ATTTCACAGAGACACACACACAATATATTTCCTTTT [CACACA_site7773] | 7.24
41 | ATAAAATATATGAAGACACACATAACATCATATTTT [CACACA_site3144] | 6.87
42 | AACCGGGCCTAAGATGTAATGCCTTAGCCTATAAAA [CACACA_negctrl_site479] | 6.3
43 | CATAATATGACATACACACACAAAAAAAAAAAAATA [CACACA_site1285] | 7.02
44 | TTTATATTAAAATATTGTACGGACATTATTTTGTAA [XGTACX_site8128] | 6.8
45 | AAAGATAAAAAAAGTACACACACACCGATATATATA [CACACA_site9006] | 7.55
